Measurements taken from PubChem BioAssay AID588591 (National Center for Advancing Translational Sciences (NCATS), 2011).
Screen size: about 390,000 compounds; about 4,700 (1.2%) were called active. The shares of active, inactive and inconclusive entries below differ from those in the screen. The call rests on the fitted dose curve; in most records, active means well fitted inhibition curve with a large enough effect; inconclusive means small, poorly fitted or top-dose-only effect, or another doubt; inactive means no such curve, though single readings can be large or run the other way. A potency beside an inconclusive call is a rough fit, not a confirmed value.

Molecular target: DNA polymerase eta (Homo sapiens) (UniProt Q9Y253)
Chain of UniProt Q9Y253 (Q9Y253 whole entry, looked up): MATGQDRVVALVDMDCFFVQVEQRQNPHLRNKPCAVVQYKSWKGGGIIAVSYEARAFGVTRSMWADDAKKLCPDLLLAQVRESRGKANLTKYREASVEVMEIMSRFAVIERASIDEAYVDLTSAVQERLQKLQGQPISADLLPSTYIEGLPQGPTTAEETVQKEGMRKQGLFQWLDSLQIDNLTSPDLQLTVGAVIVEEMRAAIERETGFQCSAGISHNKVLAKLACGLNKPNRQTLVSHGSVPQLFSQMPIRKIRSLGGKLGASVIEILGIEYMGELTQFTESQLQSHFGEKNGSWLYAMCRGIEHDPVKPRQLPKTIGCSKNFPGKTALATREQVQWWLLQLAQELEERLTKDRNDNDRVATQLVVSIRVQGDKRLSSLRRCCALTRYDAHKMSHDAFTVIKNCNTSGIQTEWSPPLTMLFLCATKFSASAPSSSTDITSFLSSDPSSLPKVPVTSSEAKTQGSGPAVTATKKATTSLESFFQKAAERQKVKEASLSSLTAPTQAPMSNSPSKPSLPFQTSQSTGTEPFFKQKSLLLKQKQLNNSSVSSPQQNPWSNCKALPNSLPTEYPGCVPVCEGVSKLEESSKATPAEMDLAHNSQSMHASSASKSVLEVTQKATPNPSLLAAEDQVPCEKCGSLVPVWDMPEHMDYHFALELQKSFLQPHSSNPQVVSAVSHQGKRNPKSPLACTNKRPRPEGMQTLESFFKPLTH
Test: qHTS for Inhibitors of Polymerase Eta
Details: recombinant Pol eta, fluorescent DNA replication assay; series mostly up to 114 µM; activity change, negative = inhibition: at the top concentration
How it was run: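 Pol eta at 10 nM preincubated with compounds 15 min at room temperature; reaction started with fluorescent substrate (50 nM final) and read kinetically at 0 and 10 min.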
On the % scale 0 is the no-effect control and ±100 the full control effect; potency means the concentration at half of the fitted maximal effect; tags describe the fitted curve by direction and shape.

Row | Compound | Potency | activity change, negative = inhibition
1 | CC[C@@H](O)C[C@H]1CCC[C@@]2(C[C@@H]3OC(=O)/C=C/[C@@](C)(O)[C@@H](O)[C@H](C)[C@@H](O)[C@H](OC4CCC(N(C)C)C(C)O4)[C@@H](O)[C@](C)(O)CCCCC/C=C/[C@@H]4CC(C)(C)O[C@@]4(O)C[C@H](O2)[C@H]3C)O1 (stereo partly specified) | inconclusive: 79.4 µM [inhibitor, partial curve, poor fit] | 
2 | O=C1NC(=O)N(Cc2ccc(F)cc2)C(=O)/C1=C/c1cccs1 | inconclusive: 89.1 µM [inhibitor, single point] | 
3 | Cc1ccc(-n2c(C)cc(/C=C3/C(=O)NC(=O)N(Cc4ccco4)C3=O)c2C)cc1 | active: 50.1 µM | 
4 | CCOc1ccc2nc(N=Nc3c(O)[nH]c(=S)[nH]c3=O)sc2c1 | inconclusive: 50.1 µM [inhibitor, partial curve, poor fit] | 
5 | Cc1ccc2c(c1)=NC(=O)/C(=C/c1c(O)[nH]c(=O)[nH]c1=O)C=2 |  | inactive: 4.51%
6 | COCCOC(=O)c1c(N)n(Cc2ccc(OC)cc2)c2nc3ccccc3nc12 | inconclusive: 6.31 µM [inhibitor, partial curve, poor fit] | 
7 | Cc1cccc(-n2c(/C=C/c3ccc([N+](=O)[O-])o3)nc3ccccc3c2=O)c1 | inconclusive: 17.8 µM [inhibitor, partial curve, poor fit] | 
8 | Cc1cccc(N2C(=O)NC(=O)/C(=C\c3cccn3-c3ccc(Cl)cc3)C2=O)c1 | active: 11.2 µM | 
9 | Cc1cccn2c(=O)c3c(nc12)N1CCC(Cc2ccccc2)CC1C1(C3)C(=O)N(C)C(=O)N(C)C1=O (stereo unspecified) | inconclusive: 56.2 µM [inhibitor, partial curve, poor fit] | 
10 | Cc1sc(NC(=O)Cn2c(=O)oc3ccccc32)nc1-c1ccc(Cl)cc1 | inconclusive: 20 µM [inhibitor, partial curve, poor fit] | 
11 | COCCCNC(=O)c1c(NC(=O)c2ccco2)n(Cc2ccccc2)c2nc3ccccc3nc12 | inconclusive: 25.1 µM [inhibitor, single point] | 
12 | O=c1[nH]c(=S)n(-c2ccccc2)c(O)c1/C=N/N1CCCCC1c1cccnc1 (stereo unspecified) |  | inactive: -22.8%
13 | Cc1cccn2c(=O)cc(COc3cccc(NC(=O)COc4ccc(F)cc4)c3)nc12 | inconclusive: 89.1 µM [inhibitor, partial curve] | 
14 | COc1ccc2nc(NC(=O)c3nc(S(=O)(=O)Cc4cccc(C)c4)ncc3Cl)sc2c1 | active: 79.4 µM | 
15 | Nc1c(C(=O)NCc2ccco2)c2nc3ccccc3nc2n1Cc1ccc(F)cc1 |  | inactive: -21.4%
16 | O=C1NC(=O)C2(Cc3ccccc3N3CCCC32)C(=O)N1c1cccc(Cl)c1 (stereo unspecified) | inconclusive: 39.8 µM [inhibitor, single point] | 
